From PubChem BioAssay AID651820 (National Center for Advancing Translational Sciences (NCATS), 2012)
Out of some 340,000 compounds screened, about 12,000 (3.5%) were called active. This list was built around the results that the source calls inconclusive (neither active nor inactive); the mix of calls is not that of the screen. Calls come from the whole dose curve; as a rule, active = well fitted inhibition curve with a large enough effect; inconclusive = small, poorly fitted or top-dose-only effect, or another doubt; inactive = no such curve, though single readings can be large or run the other way. Potencies of inconclusive entries are left out as doubtful fits.

Assay: qHTS Assay for Inhibitors of Hepatitis C Virus (HCV)
Details: Huh7.5.1 HCVcc-Cre (HCVcc is cell-culture hepatitis C virus) infection, luciferase reporter, 44 h; activity change, negative = inhibition: at 41.8 µM (top of the series)
In short: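 Antiviral activity was scored by luciferase reporter output from cells infected with HCVcc-Cre (~0.5 moi) in presence of compound, 44 h infection period, cells seeded 1,000/well 4 h prior.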
% is set by controls: 0 for no effect and ±100 for the full control effect; potency is the fitted concentration of half-maximal effect; tags give direction and shape of the fitted curve.

SMILES	activity change, negative = inhibition	Potency
CC(=O)c1cccc(NC(=S)NC(=O)c2ccccc2)c1	inactive: -14.6%	
CC(C)Oc1ccc(/C=N/NC(=O)c2ccc(N(Cc3ccccc3)S(C)(=O)=O)cc2)cc1		inconclusive [inhibitor, single point]
Cc1ccc(-c2nnc(NC(=O)Cc3ccc(F)cc3)o2)c(C)c1	inactive: -11.1%	
CCCn1c(SCC(=O)Nc2ccccc2C(=O)NC2CC2)n[nH]c1=O	inactive: -0.471%	
Cc1c(NS(=O)(=O)c2cccc(C(=O)NCc3ccco3)c2)c(=O)n(-c2ccccc2)n1C		inconclusive [inhibitor, partial curve]
COc1ccc(N(C)S(=O)(=O)c2cccc(C(=O)Nc3nnc(C4CC4)s3)c2)cc1		inconclusive [inhibitor, single point]
Cc1nc(C(F)(F)F)c(C(=O)N/N=C(\N)c2ccccn2)s1		active: 12.6 µM
COc1ccc(C2(c3ccc(OC)cc3)NC(=O)N(CC(=O)Nc3cc(C)ccc3OC)C2=O)cc1		inconclusive [inhibitor, single point]
Cc1ccc2c(c1)nnn2C1CCN(S(=O)(=O)c2ccc(C(=O)N(C)C)cc2)CC1		inconclusive [inhibitor, single point]
CSc1ncc(Cl)c(C(=O)Nc2cccc(Cl)c2)n1	inactive: -17.8%	
Cc1nnc(Sc2nc3c(c(=O)[nH]c(=O)n3C)n2Cc2ccccc2)s1		inconclusive [inhibitor, single point]
O=C(Cn1ncc(Cl)c(Cl)c1=O)N1CCc2ccccc21		inconclusive [inhibitor, single point]
O=C(COc1ccc(F)cc1)Nc1nnc(S(=O)(=O)N2CCCC2)s1	inactive: 12.5%	
COc1cc(/C=C2\C[C@H]3[C@@H]4CC=C5C[C@@H](N6CCCC6)CC[C@]5(C)[C@H]4CC[C@]3(C)[C@H]2O)cc(OC)c1OC		active: 7.08 µM
COc1ccc(C)cc1S(=O)(=O)N1CCN(C/C=C/c2ccccc2)CC1		inconclusive [inhibitor, single point]
CN1C(=O)C(=Cc2sc(=O)n(-c3ccccc3)c2N2CCCCC2)C(=O)N(C)C1=O	inactive: -2.15%	
COc1ccc(-c2cc(CCCC(=O)NCCc3ccc(OC)cc3OC)no2)cc1	inactive: -27.8%	
COc1ccc(-c2sc3cc4c(cc3c2-c2ccc(OCCN3CCOCC3)cc2)OCO4)cc1	inactive: -48.6%	
O=C(CSc1nnc(CNC(=O)c2cccs2)o1)Nc1ccc(Cl)cc1	inactive: 7.55%	
O=C1/C(=N\S(=O)(=O)c2cccs2)C([n+]2ccc(CCCc3ccccc3)cc2)=C([O-])c2ccccc21		inconclusive [inhibitor, single point]
COc1ccc(S(=O)(=O)N2CCCCCC2)cc1C(=O)N(C)Cc1ccc(C)cc1		inconclusive [inhibitor, single point]
COc1ccc(OC)c(-c2cc(C3CCN(c4ncccc4[N+](=O)[O-])CC3)[nH]n2)c1		active: 11.2 µM
Cc1nc2c(-c3ccccc3)c(C)nn2c(C)c1CCC(=O)NC(C)CCc1ccco1 (stereo not drawn)	inactive: -16.2%	
CCN1/C(=C/c2ccc3cc(C)ccc3[n+]2CC)Sc2ccc3sccc3c21		active: 3.55 µM
CCOC(=O)C(=O)Nc1nnc(C2CCCCC2)s1	inactive: -9.78%	

SMILES	activity change, negative = inhibition	Potency
O=C1CS/C(=N/N=C/c2cccs2)N1Cc1ccc(F)cc1		inconclusive [inhibitor, single point]
COc1ccccc1NC(=O)Cn1c(=O)oc2ccccc21	inactive: 12.4%	
COc1ccc(/C=C/C(=O)NC(C)CCc2ccccc2)cc1OC (stereo not drawn)		inconclusive [inhibitor, full curve]
CC(=O)c1sc(NC(=O)C2CCN(C(=O)c3ccccc3C)CC2)nc1-c1ccccc1		inconclusive [inhibitor, single point]
COc1cccc(NC(=O)CSc2nnnn2C2CCCCC2)c1	inactive: -18.1%	
Cc1ccc(C(=O)O)cc1NC(=O)C1CCCN1S(=O)(=O)c1cccc2nsnc12 (stereo not drawn)	inactive: 12.7%	
COC(=O)CC(=O)O[C@H]1C=C[C@@H](NC(=O)OC(C)(C)C)C1		active: 31.6 µM
O=C(/C=C/Nc1ccccc1)c1ccc(Cl)cc1Cl	inactive: -12.8%	
O=Nc1c(O)c2ccccc2c2ccccc12		inconclusive [inhibitor, partial curve]
CC(=O)Nc1ccc(OCC(=O)Nc2ccc(Cl)c(S(=O)(=O)N3CCOCC3)c2)cc1		inconclusive [inhibitor, partial curve]
COc1cc(C(=O)N2CCN(c3ccc(C)cc3C)CC2)cc(OC)c1OC		inconclusive [inhibitor, partial curve]
Cc1ccc(S(=O)(=O)N2CCN(c3ccc(S(=O)(=O)N4CCOCC4)cn3)CC2)cc1	inactive: -1.84%	
COc1ccc(CC(=O)NNC(=O)c2ccc(NC(C)=O)cc2)cc1	inactive: 12.6%	
NC(=O)[C@@H]1CCCN1Cc1nc(-c2ccccc2)no1	inactive: -0.552%	
O=C(COc1ncnc2ccccc12)Nc1cc([N+](=O)[O-])ccc1F	inactive: 8.11%	
COCCN1CCN(C(=O)c2cc(COc3cncc(Cl)c3)on2)CC1	inactive: -24%	
CCOC(=O)C1CCN(C(=O)C2CCCN(S(=O)(=O)c3ccc(OCC)c(Cl)c3)C2)CC1 (stereo not drawn)	inactive: -25.1%	
COc1ccc(C)cc1N(C(=O)c1ccc(F)cc1)c1nc2ccccc2s1		inconclusive [inhibitor, single point]
CCCC(=O)Nc1ccc2oc(-c3ccc(OC)c(Br)c3)nc2c1		inconclusive [inhibitor, full curve, poor fit]
c1ccc(-n2cnnc2SCc2cn3cccnc3n2)cc1	inactive: 10.7%	
OC(COc1ccccc1)CN(Cc1ccccc1)CC(O)COc1ccccc1 (stereo not drawn)	inactive: -9.28%	
Cc1cc(C)c2c(=O)cc(C(F)(F)F)oc2n1	inactive: 11.7%	
COc1cccc(NS(=O)(=O)c2ccc(S(=O)(=O)N3CCCC3)cc2)c1		inconclusive [inhibitor, single point]
Cc1cc(C(=O)CSc2nc(N)cc(=O)[nH]2)ccc1F	inactive: -16.2%	
COC(=O)C1=C(c2ccccc2OCc2ccccc2)C[C@@H]2CC[C@H]1N2C(=O)NCc1ccc(C(C)(C)C)cc1		inconclusive [inhibitor, partial curve]

SMILES	activity change, negative = inhibition	Potency
CCNC(=O)C(=O)NCC1CCCN1S(=O)(=O)c1cccs1 (stereo not drawn)	inactive: -3.29%	
COc1cc(CN2CCc3ccccc3C2)ccc1O		inconclusive [inhibitor, single point]
CCCSc1oc(-c2ccco2)nc1S(=O)(=O)c1ccccc1		inconclusive [inhibitor, single point]
Cc1ccccc1-n1c(C)cc(/C=C2/C(=N)N3C(c4ccccc4)=CSC3=NC2=O)c1C		inconclusive [inhibitor, single point]
O=C(O)Cn1cccc1C(=O)c1ccccc1		inconclusive [inhibitor, single point]
COc1ccccc1N1CCN(C(=O)c2sc3nc(-c4ccc(F)cc4)cn3c2C)CC1		active: 4.47 µM
COc1ccc(C(=O)Nc2ccc(Cl)cc2C(=O)N2CCCC(C)C2)cc1 (stereo not drawn)		inconclusive [inhibitor, single point]
O=C(CCCN1C(=O)/C(=C/c2ccccc2Cl)SC1=S)N1CCCC1		inconclusive [inhibitor, single point]
O=S(=O)(c1ccc(F)cc1)N(CCO)CC(O)Cn1c2ccccc2c2ccccc21 (stereo not drawn)	inactive: -10.5%	
O=C(O)c1cccc(Nc2nc(-c3ccccc3)nc3ccccc23)c1	inactive: 13.7%	
CC(C(=O)N1CCCC1)N1CCN(S(=O)(=O)c2ccc(OC(F)(F)F)cc2)CC1 (stereo not drawn)	inactive: 9.01%	
COc1cc(C(=O)NC(=S)N(CCc2ccccc2)CCc2ccccc2)cc(OC)c1OC		inconclusive [inhibitor, partial curve]
Cc1cc(Br)ccc1NC(=O)CN(C)C(=O)C1CCN(c2ncnc3sc(C)c(C)c23)CC1		active: 10 µM
CC(=O)c1c(C)[nH]c(C(=O)C(C)Sc2nnc(NC3CC3)s2)c1C (stereo not drawn)		active: 10 µM
CCN=C1S/C(=C\c2cc(Br)c(O)c(OC)c2)C(=O)N1CC		inconclusive [inhibitor, partial curve, poor fit]
CN(C)S(=O)(=O)c1cccc(NC(=O)CSc2nc3ccccc3[nH]2)c1		inconclusive [inhibitor, single point]
CCOC(=O)c1c(C)[nH]c(C(=O)CN2C(=O)NC(CC)(c3ccccc3)C2=O)c1C (stereo not drawn)		inconclusive [inhibitor, partial curve]
COc1ccc(CCN2CC(C#N)=C3c4cc(OC)c(OC)cc4CCN3C2)cc1OC		inconclusive [inhibitor, single point]
COc1cccc2c(SCC(=O)N/N=C/c3ccc(O)cc3O)cc(C)nc12		inconclusive [inhibitor, single point]
O=c1c2ccccc2nc(SCc2cccc(F)c2)n1-c1cccc(S(=O)(=O)N2CCCC2)c1		inconclusive [inhibitor, partial curve, poor fit]
O=c1[nH]ncc2c3ccccc3n(Cc3cccc(Cl)c3)c12		inconclusive [inhibitor, full curve, poor fit]
CCN(CC)S(=O)(=O)c1ccc(N/N=C(\C)c2ccncc2)nc1		inconclusive [inhibitor, single point]
Cc1ccc(N(C)S(=O)(=O)c2cccc(C(=O)N3CCN(Cc4ccccc4)CC3)c2)cc1		inconclusive [inhibitor, single point]
